Measured values from PubChem BioAssay (NCI).
Where “and” joins values, the source holds several entries; their conditions need not be identical. Equal values may be shown once.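 In this assay, cells in 96-well plates receive the compound at five concentrations for 48 hours. Endpoints are linearly interpolated between the surrounding concentrations. Abbreviation: GI50, concentration required for 50% inhibition of growth. At the TGI there is no net growth.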 Square brackets hold non-standard residues; d marks the D form. Peptide text beside a SMILES is read from it. * marks the point of attachment. Phe(4-NO2) = N[CH](Cc1ccc([N+](=O)[O-])cc1)C(=O)O; Cbz = O=C(OCc1ccccc1)*

system: NCI-H322M lung; assay: DTP human tumour cell line panel, 48 h

Point of comparison: `Cc1cc(N)c2cc(NC(=O)/C=C\c3ccccc3Cl)ccc2n1`, TGI 2.85 µM. Against it:
- COc1cc2c(c(OC)c1OC)[C@@H]1CCCCC[C@@H]1CCC2=O — higher, > 100 µM
- CCOC(=O)c1sc2c(c1OC(=O)c1ccco1)c(=O)n(-c1ccccc1)c(=S)n2-c1ccccc1 — higher, > 100 µM
- O=c1oc2cc(O)ccc2cc1-c1nc2ccccc2o1 — higher, > 100 µM
- O=C1Nc2ccccc2C1(O)Cc1ccccn1 (configuration not stated) — higher, > 100 µM
- Cc1cc(O)c(C(O)c2ccccn2)cc1O (configuration not stated) — higher, > 100 µM
- CCOC(=O)CCC(NC(=O)OCc1ccccc1)C(=O)NC(CCC(=O)OCC)C(=O)NC(CCC(=O)OCC)C(=O)NC(CCC(=O)OCC)C(=O)NC(CCC(=O)OCC)C(=O)NC(Cc1ccc([N+](=O)[O-])cc1)C(=O)NC(CCC(=O)OCC)C(=O)NC(CCC(=O)OCC)C(=O)NC(CCC(=O)OCC)C(=O)NC(CCC(=O)OCC)C(=O)NC(CCC(=O)OCC)C(=O)OCC (configuration not stated) (Cbz-E(OEt)E(OEt)E(OEt)E(OEt)E(OEt)[Phe(4-NO2)]E(OEt)E(OEt)E(OEt)E(OEt)E(OEt)-OEt; configuration not given here) — higher, > 50 µM
- CC(=O)/C=C1/C(=O)C(CC(C)C)=C1CC(C)C — higher, > 100 µM
- COc1cc(C(C)c2cc3c(cc2OCCCCCOc2cc4c(cc2C(C)c2cc(OC)c(OC)c(OC)c2)OCO4)OCO3)cc(OC)c1OC (configuration not stated) — higher, > 100 µM
- CC(C)CC1CC2C(=O)N(c3ccccc3)C(=O)C2c2[nH]c3ccccc3c21 (configuration not stated) — higher, > 100 µM
- COC(=O)/C=C1\C(=O)Nc2ccc(Br)cc21 — 1.8-fold higher, 5 µM
- CC1CCC2C(C(=O)O[C@H]3C4C=CO[C@@H](OC5OC(CO)C(O)C(O)C5O)C4[C@@]4(CO)O[C@@H]34)=CO[C@@H](OC3OC(CO)C(O)C(O)C3O)C12 (some centres not stated) — higher, > 10 µM
- NC(=O)c1c(NC(=O)c2ccc(C(F)(F)F)cc2Cl)sc2c1CCC(=O)C2 — 9.2-fold higher, 26.3 µM
- CN(COC(=O)C(C)(C)C)c1nc(N(C)COC(=O)C(C)(C)C)nc(N(C)COC(=O)C(C)(C)C)n1 — higher, > 100 µM
- CC(C)OC(=O)NNc1c(Cl)cc(Cl)cc1Cl — 35-fold higher, 99.4 µM
- CC1(c2cccc(C(F)(F)F)c2)CC(c2cccc(C(F)(F)F)c2)=C(C#N)C(=C(C#N)C#N)N1 (configuration not stated) — 11-fold higher, 30.1 µM
- O=C1c2ccccc2C(=O)N1CCN(CCN1C(=O)c2ccccc2C1=O)Cc1ccccc1 — higher, > 100 µM
- NC(N)=NS(=O)(=O)c1ccc(NCc2cccc3c(=O)c4ccc(Cl)cc4oc23)cc1 — higher, > 25 µM
- c1ccc(CSCCC(SCc2ccccc2)SCc2ccccc2)cc1 — higher, > 10 µM
- CC12CC(Br)(Br)C(=O)C3C1CCCC32 — 10-fold higher, 29.2 µM
- Cc1nsc2cc(Cl)n(C)c(=O)c12 — higher, > 100 µM
- Cc1cc(NS(=O)(=O)c2ccc(NC(=O)c3ccc4nc5ccccc5c(Nc5ccc(S(N)(=O)=O)cc5)c4c3)cc2)no1 — higher, > 100 µM
- Nc1ncnc2occ(-c3ccc(NC(=O)Nc4cccc(C(F)(F)F)c4)cc3)c12 — 4.9-fold higher, 13.9 µM
- Nc1ncnc2c1ncn2C1(CO)OC(CO)C(O)C1O (configuration not stated) — higher, > 100 µM
- CC1Nc2ccccc2NC1C=C(C#N)C#N (configuration not stated) — 11-fold higher, 30.8 µM
- O=C(N/N=C\c1ccc([N+](=O)[O-])cc1)Nc1ccc2ccccc2c1 — higher, > 100 µM
- O=C(O)C(C1NCCS1)N1C(=O)c2ccccc2C1=O (configuration not stated) — higher, > 100 µM
- O=C(c1ccsc1)c1nccc2c1cnc1ccccc12 — higher, > 100 µM
- Cc1ccc(-c2csc3ncnc(Nc4cccc(O)c4)c23)cc1 — 15-fold higher, 43.3 µM
- O=S(=O)([O-])c1ccc(C=Nc2ccccc2)c([O-])c1.O=S(=O)([O-])c1ccc(C=Nc2ccccc2)c([O-])c1.[Co+2] — higher, > 100 µM
- CCOC(=O)c1nc2sc(Cl)cn2c1/C=N/N=C(N)N — 16-fold higher, 46.4 µM
- O=C(/C=C/c1cccc(Cl)c1)c1ccccc1 — 11-fold higher, 30.7 µM
- C=C1C(=O)OC2/C=C(CO)/C=C\C3OC3(C)CC(OC(=O)/C(C)=C/COC(C)=O)C12 (configuration not stated) — 9.9-fold higher, 28.1 µM
- Cc1ccnn1CCc1ccc(Cl)cc1Cl — higher, > 100 µM
- CC[n+]1c(/C=C/c2cc(C(=O)OC)n3c2sc2ccccc23)sc2ccccc21 — 10-fold higher, 29.8 µM
- COc1cc(/C=C/C(=O)c2cccc(-n3cc(-c4ccccc4)[nH]c3=O)c2)ccc1O — 5.5-fold higher, 15.7 µM
- O=C(O)CNc1ncc2c(n1)-c1ccccc1OC2 — higher, > 100 µM
- CC(=O)CC(=O)Nc1ccc(OS(N)(=O)=O)cc1 — higher, > 100 µM
- COc1cccc(-c2nc(N)c(C#N)c3c2CCS(=O)(=O)c2ccc(C)cc2-3)c1 — 34-fold higher, 97.4 µM
- O=NN(CC(=O)NNc1ccccc1)CC(=O)NNc1ccccc1 — higher, > 100 µM
- Fc1nc(-c2c3ccccc3c3sc4ccccc4n23)nc(N2CCOCCOCCOCCOCC2)n1 — higher, > 100 µM
- Clc1nc(NC23CC4CC(CC(C4)C2)C3)nc(NC23CC4CC(CC(C4)C2)C3)n1 — higher, > 100 µM
- NC(=O)c1c(-c2ccccc2)c(-c2ccccc2)cc2c(=O)c3ccccc3[nH]c12 — higher, > 100 µM
- N#Cc1ccccc1NC(=O)C(O)C(O)C(O)C(O)C=O (configuration not stated) — higher, > 100 µM
- Cc1c2cnccc2c(C)c2c1c1ccccc1n2CCCCCCCl — higher, > 50 µM
- COC(=O)c1cc2c3cc(Cl)ccc3[nH]c2c2ncccc12 — higher, > 100 µM
- CCCCCCCCCCCCNCCCc1ccccc1 — 8-fold higher, 22.8 µM
- O=C(N/N=C/c1cc(Cl)cc(Cl)c1[O-])c1ccccc1O.O=C(N/N=C/c1cc(Cl)cc(Cl)c1[O-])c1ccccc1O.[Mn+2] — 4.7-fold higher, 13.4 µM
- NC(N)=N/N=C/c1c(Cl)nc2n1CCS2 — higher, > 100 µM
- COc1cc(CNc2ccc(C)cc2)cc(OC)c1OC — higher, > 100 µM
- O=C1NCC2(CCN(CC3COc4ccccc4O3)CC2)N1c1ccccc1 (configuration not stated) — higher, > 100 µM
- N#Cc1ccc(N=NN2CCCC2)cc1 — higher, > 100 µM
- O=c1c2cc([N+](=O)[O-])ccc2[nH]n1Cc1ccccc1Cl — higher, > 100 µM
- CSCCCNC(=O)c1csc(-c2csc(CCNC(=O)CNC(=O)OC(C)(C)C)n2)n1 — higher, > 100 µM
- Cc1ccccc1-c1cc(=O)c2cc(C)c(C)c(C(=O)O)c2o1 — higher, > 100 µM
- CCc1n(Cc2ccc3ccccc3c2)cc[n+]1Cc1ccc2ccccc2c1 — 2.4-fold higher, 6.71 µM
- COc1cc2c(/C=C3/C(=O)Nc4cc(C)c(O)cc43)c(Cl)[nH]c2cc1C — 3.2-fold higher, 9.18 µM
- COC(=O)c1c(C)c2c(c(C)c1O)OC(=O)c1c(C)cc(O)c(C=O)c1O2 — higher, > 100 µM
- O=C(N/N=C/c1coc2ccc(Cl)cc2c1=O)c1cc(O)c(O)c(O)c1 — 23-fold higher, 64.8 µM
- CCc1cccc(CC)c1Nc1nc(-c2ccccc2-c2ccccc2)cs1 — higher, > 100 µM
- Nc1ccc(C(=O)NN2C(=O)C(Cl)C2c2ccc(O)cc2)cc1 (configuration not stated) — 12-fold higher, 34.8 µM
- COc1cc(Br)c(/C=N/N=C(\N)NO)cc1OC — higher, > 100 µM
- CN(C)Cc1nsc(N(C)C)n1 — higher, > 100 µM
- O=C(Nc1ccc(Br)cc1)c1cc(Br)ccc1O — higher, > 23 µM
- CCSc1c2cc(OC)ccc2nc2ccc(OC)cc12 — higher, > 91.2 µM
- CCOC(=O)c1ccc(N[C@@H]2c3cc4c(cc3C(c3cc(OC)c(O)c(OC)c3)[C@H]3C(=O)OCC32)OCO4)cc1 (some centres not stated) — 6.8-fold higher, 19.5 µM
- CCCCCCCCCCCC(=O)OCC(O)CO (configuration not stated) — higher, > 100 µM
- CC(Oc1ccc(Cl)cc1Cl)C(=O)NN1C(=O)CC(=O)NC1=S (configuration not stated) — higher, > 100 µM
- CC(C)(C)C1CC[C@H](O)[C@H]([C@@H](O)CC2CC(=O)N(c3ccccc3)C(=O)C2)C1 (some centres not stated) — higher, > 100 µM
- CC1=CC2=C(C=O)C(=O)[C@](C)(O)[C@@H](O)C2=CO1 — higher, > 100 µM

Point of comparison: `COc1cc(/C=C/C(=O)c2cccc(-n3cc(-c4ccccc4)[nH]c3=O)c2)ccc1O`, GI50 4.82 µM. Against it:
- NC(=O)c1c(NC(=O)c2ccc(C(F)(F)F)cc2Cl)sc2c1CCC(=O)C2 — 1.5-fold lower, 3.17 µM
- Nc1ncnc2occ(-c3ccc(NC(=O)Nc4cccc(C(F)(F)F)c4)cc3)c12 — within 1.5-fold, 4.23 µM
- Cc1ccc(-c2csc3ncnc(Nc4cccc(O)c4)c23)cc1 — 4-fold higher, 19.2 µM
- O=S(=O)([O-])c1ccc(C=Nc2ccccc2)c([O-])c1.O=S(=O)([O-])c1ccc(C=Nc2ccccc2)c([O-])c1.[Co+2] — higher, > 100 µM
- CCOC(=O)c1nc2sc(Cl)cn2c1/C=N/N=C(N)N — 4.4-fold higher, 21.2 µM
- O=C(/C=C/c1cccc(Cl)c1)c1ccccc1 — 3-fold higher, 14.5 µM
- O=NN(CC(=O)NNc1ccccc1)CC(=O)NNc1ccccc1 — higher, > 100 µM
- Cc1cc(N)c2cc(NC(=O)/C=C\c3ccccc3Cl)ccc2n1 — 3.3-fold lower, 1.48 µM
- COC(=O)c1cc2c3cc(Cl)ccc3[nH]c2c2ncccc12 — higher, > 100 µM
- CCCCCCCCCCCCNCCCc1ccccc1 — 1.7-fold higher, 8.12 µM
- O=C(N/N=C/c1cc(Cl)cc(Cl)c1[O-])c1ccccc1O.O=C(N/N=C/c1cc(Cl)cc(Cl)c1[O-])c1ccccc1O.[Mn+2] — 8.7-fold lower, 0.552 µM
- CCc1n(Cc2ccc3ccccc3c2)cc[n+]1Cc1ccc2ccccc2c1 — 2.3-fold lower, 2.12 µM
- O=C(N/N=C/c1coc2ccc(Cl)cc2c1=O)c1cc(O)c(O)c(O)c1 — 4.9-fold higher, 23.4 µM
- CC(C)C[C@H](NC(=O)[C@@H](N)Cc1cccc2ccccc12)B(O)O — 2.2-fold lower, 2.18 µM

With `CC(C)C[C@H](NC(=O)[C@@H](N)Cc1cccc2ccccc12)B(O)O` the TGI was 7.71 µM and 1.23 µM.

With `O=C(Nc1ccc(Br)cc1)c1cc(Br)ccc1O` the GI50 was 0.32 µM and 0.563 µM.
